Experimental data as given in the supplement of paper PMC9446081.
The campaign covered roughly 39,000 compounds. About 220 (0.56%) showed activity. The list shows a part of the results.

These compounds were tested on Escherichia coli K-12 BW25113 (assay: relative growth (OD600 normalised to plate interquartile mean) (fraction); higher = less growth inhibition, active = 0.2 or less). Conditions: 50 µM; LB; incubation time: overnight (16-24 h).
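Further: static incubation at 37 °C against the wild-type strain, values averaged over two biological replicates.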

SMILES | relative growth
COc1ccc(NC(=O)Nc2ccc3c(c2)C(=O)N([C@H](C)CO)C[C@H](C)[C@@H](CN(C)S(=O)(=O)c2ccc(F)cc2)OCCCC[C@@H](C)O3)cc1 | inactive: 1
O=C(CS)NCCCCCCNC(=O)[C@@H]1C[C@@H]2C(=O)N[C@@H](Cc3ccccc3)C(=O)N2[C@@H]1c1ccc(O)cc1 | inactive: 0.996
O=C(O)[C@H](O)[C@@H](O)[C@H](O)[C@H](O)CO | inactive: 0.975
C[C@H]1CN([C@@H](C)CO)C(=O)c2c(c3ccccc3n2C)-c2ccccc2CO[C@@H]1CN(C)Cc1ccc(Cl)c(Cl)c1 | inactive: 0.978
COC(=O)[C@@H](Cc1ccc(-n2cc(C(=O)NO)nn2)cc1)N1CC(/C=C/C2CC2)=C[C@H]1[C@H](O)Cc1ccccc1 | inactive: 1.01
C[C@@H]1CN([C@H](C)CO)C(=O)c2cccc(NC(=O)Nc3ccc4c(c3)OCO4)c2O[C@H]1CN(C)Cc1ccc(C(F)(F)F)cc1 | inactive: 0.854
N[C@@H](CO)c1cccc(Br)c1 | inactive: 0.934
C[C@@H]1CN([C@H](C)CO)C(=O)c2cc(NC(=O)Cc3cn(C)c4ccccc34)ccc2O[C@@H]1CN(C)S(C)(=O)=O | inactive: 0.992
COc1cc(OC)cc(-c2ccc([C@H]3CC(=O)C[C@@H](c4ccccc4)C34C(=O)OC(C)(C)OC4=O)cc2)c1 | inactive: 1.02
CC[C@@H](CN)Cc1ccccc1 | inactive: 0.923
COc1ccc(NC(=O)N(C)C[C@@H]2OCc3ccccc3-c3c(n(C)c4ccccc34)C(=O)N([C@@H](C)CO)C[C@H]2C)cc1 | inactive: 1
C[C@H]1CN([C@@H](C)CO)S(=O)(=O)c2ccc(C3=CCCC3)cc2O[C@H]1CN(C)C(=O)Cc1ccncc1 | inactive: 1
C[C@H](CO)N1C[C@H](C)[C@@H](CN(C)S(=O)(=O)c2ccc(Cl)cc2)Oc2ccc(NC(=O)CCCN(C)C)cc2C1=O | inactive: 1
Cc1ccc(S(=O)(=O)N[C@H]2CC[C@H](CC(=O)NCc3ccc(Cl)c(Cl)c3)O[C@@H]2CO)cc1 | inactive: 0.817
Cc1noc(C)c1S(=O)(=O)N(C)C[C@@H]1Oc2ccc(N(C)C)cc2CC(=O)N([C@H](C)CO)C[C@H]1C | inactive: 0.993
Cc1noc(C)c1NC(=O)Nc1ccc2c(c1)CC(=O)N([C@@H](C)CO)C[C@@H](C)[C@@H](CN(C)S(C)(=O)=O)O2 | inactive: 0.963
Cc1noc(C)c1NC(=O)N(C)C[C@H]1Oc2ccc(NS(=O)(=O)c3c(C)noc3C)cc2CC(=O)N([C@H](C)CO)C[C@@H]1C | inactive: 1.01
C[C@@H]1CN([C@@H](C)CO)C(=O)c2cc(NC(=O)CCC(F)(F)F)ccc2O[C@@H](C)CCCCO[C@H]1CN(C)C(=O)Cc1ccccc1 | inactive: 1.02
C[C@@H]1CN([C@H](C)CO)C(=O)c2cc(NC(=O)Cc3ccccc3)ccc2O[C@@H](C)CCCCO[C@@H]1CN(C)C(=O)NC1CCCCC1 | inactive: 1

SMILES | relative growth
C[C@@H]1CN([C@@H](C)CO)C(=O)c2cc(C#CC3(O)CCCC3)cnc2O[C@H]1CN(C)S(=O)(=O)c1ccc(F)cc1 | inactive: 0.998
C[C@H](CO)N1C[C@H](C)[C@@H](CN(C)Cc2ccc(C(=O)Nc3ccccc3N)cc2)Oc2c(NS(=O)(=O)c3cn(C)cn3)cccc2C1=O | inactive: 0.994
C[C@@H]1CN([C@H](C)CO)C(=O)Cc2cc(NC(=O)C3CC3)ccc2O[C@@H]1CN(C)S(=O)(=O)c1ccc(F)cc1 | inactive: 0.964
C[C@@H]1CN([C@H](C)CO)C(=O)Cc2cc(NC(=O)Nc3ccc(C(F)(F)F)cc3)ccc2O[C@H]1CN(C)Cc1ccccc1 | inactive: 0.983
O=C(C[C@@H]1C[C@H]2c3cc(NC(=O)C4CCOCC4)ccc3O[C@H]2[C@@H](CO)O1)NCCN1CCCCC1 | inactive: 0.915
Cc1nnsc1C(=O)NCC1(O)CCCC1 | inactive: 0.998
Cc1noc(C)c1NC(=O)N(C)C[C@H]1OCCCC[C@H](C)Oc2ccc(NC(=O)c3ccccc3)cc2C(=O)N([C@H](C)CO)C[C@@H]1C | inactive: 0.998
C[C@H]1CN([C@@H](C)CO)C(=O)c2cc(NC(=O)Nc3ccc4c(c3)OCO4)ccc2O[C@@H]1CN(C)C(=O)Nc1ccc(C(F)(F)F)cc1 | inactive: 0.99
C[C@@H]1CN([C@@H](C)CO)C(=O)c2cc(NC(=O)Nc3ccc(F)cc3)ccc2O[C@@H](C)CCCCO[C@@H]1CN(C)C(=O)NC1CCCCC1 | inactive: 0.988
C[C@@H]1CCCCO[C@@H](CN(C)Cc2ccncc2)[C@H](C)CN([C@H](C)CO)C(=O)c2cc(NC(=O)Nc3cccc4ccccc34)ccc2O1 | inactive: 1.02
CC(C)(C)OC(=O)Cn1ccc(=O)[nH]c1=O | inactive: 1.03
COCC(=O)Nc1ccc2c(c1)OC[C@H](C)N(C(=O)Cc1ccccn1)C[C@H](C)[C@H](OC)CN(C)C2=O | inactive: 0.995
COc1cccc(NC(=O)C[C@@H]2CC[C@H]3[C@@H](COc4ccc(NC(=O)C5CCOCC5)cc4C(=O)N3C)O2)c1 | inactive: 1.01
C[C@@H]1CN([C@H](C)CO)C(=O)c2c(c3ccccc3n2C)-c2ccccc2CO[C@H]1CN(C)Cc1ccc(C(=O)O)cc1 | inactive: 0.98
COC(=O)[C@@H](N)Cc1ccc(-n2cc(CCC(=O)NO)nn2)cc1 | inactive: 0.782
CO[C@@H]1CN(C)C(=O)c2cc(NS(C)(=O)=O)ccc2OC[C@H](C)N(C(=O)c2ccc3c(c2)OCO3)C[C@@H]1C | inactive: 1.01
C[C@@H]1CCCCO[C@@H](CN(C)C(=O)Nc2ccc(C(F)(F)F)cc2)[C@H](C)CN([C@@H](C)CO)C(=O)c2cc(NS(=O)(=O)c3ccc(F)cc3)ccc2O1 | inactive: 1.01
CC(C)NC(=O)Nc1ccc2c(c1)CC(=O)N([C@H](C)CO)C[C@H](C)[C@H](CN(C)Cc1ccc3c(c1)OCO3)O2 | inactive: 1.01
C[C@@H]1CCCCO[C@H](CN(C)C(=O)NC2CCCCC2)[C@H](C)CN([C@@H](C)CO)C(=O)c2cc(NC(=O)NC3CCCCC3)ccc2O1 | inactive: 1.03
